Source: PubChem BioAssay AID743279 (National Center for Advancing Translational Sciences (NCATS), 2014)
The whole screen tested about 360,000 compounds, of which about 17,000 (4.7%) were called active. Inconclusive results, whose numbers are uncertain, are shown with a selection of clear calls. Cut-off read from the data, not from the text of the source: active = activity change below about -50%; inconclusive = mostly about -30% to -49%; inactive = weaker than that.

Test: qHTS for Inhibitors of Inflammasome Signaling: IL-1-beta AlphaLISA Primary Screen
Conditions: THP-1 LPS/ATP IL-1B secretion, 16 h; at 57.5 µM, hits give low values
Summary of the method: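 THP-1 cells pretreated 1 hr with compounds (up to 57.5 uM final), then stimulated with LPS (250 ng/mL final) plus ATP (1.25 mM final); secreted IL-1B measured by AlphaLISA after 16 hr, decreased signal indicating inhibition.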
% is set by controls: 0 for no effect and ±100 for the full control effect.

Activity change, inconclusive:
Cc1c(NC(=O)C(C)OC(=O)c2cc(-c3cccc4ccccc34)nc3ccccc23)c(=O)n(-c2ccccc2)n1C (stereo not drawn) -32%
O=C(CCC1CCCN(C(=O)c2ccc3[nH]ccc3c2)C1)N1CCN(c2ccccn2)CC1 (stereo not drawn) -32.7%
CC(C)N1CC(O)=C(c2nc3ccccc3c(=O)[nH]2)C1=N -44.3%
COc1cccc(/C=C2\SC(=S)N(CCC(=O)N3CCCCC3CCO)C2=O)c1 (stereo not drawn) -44.4%
Cc1cccc(C)c1NC(=S)N(Cc1ccccc1)Cc1cccs1 -36.1%
COc1ccc(S(=O)(=O)Nc2ccc(Cc3ccncc3)cc2)cc1C -33.1%
Cc1ccc(Nc2nc(CSc3nnc(-c4ccncc4)n3C)cs2)cc1 -32.2%
Cc1ccc(S(=O)(=O)Nc2cccc(C(=O)NCC(c3ccccc3)N(C)C)c2)cc1F (stereo not drawn) -48%
Cc1ccc(NC(=O)COC(=O)C(NS(=O)(=O)c2ccc(Cl)cc2)C(C)O)cc1C (stereo not drawn) -31.7%
CCOc1ccc(N2C(=O)CC(SCCN)C2=O)cc1 (stereo not drawn) -31%
CC(=O)c1ccc(S(=O)(=O)N2CCN(c3ccnc4cc(Cl)ccc34)CC2)cc1 -42.1%
CS(=O)(=O)c1ccc(C(=O)Nc2ccccc2Cl)cc1 -31.6%
CCSc1nc(NCCN(C)C)c2c3c(sc2n1)COC(C)(CC)C3 (stereo not drawn) -46.5%
Cc1cc(NCCN2CCOCC2)n2nc(C)c(-c3ccc(Cl)cc3)c2n1 -31%
COc1ccc(Nc2nnc(-c3ccc(O)cc3)c3ccccc23)cc1 -34.5%
CCN1CCN(C(=O)c2cc3c(-c4ccc(Cl)cc4)nn(C)c3s2)CC1 -40.4%
COc1cc(OC)cc(-c2cc3nc(C)c(CCC(=O)NCc4ccccc4)c(C)n3n2)c1 -40.5%
O=C(Nc1ccccc1F)Nc1ccc([N+](=O)[O-])cc1Cl -47.2%
COc1cc2c(-c3ccc4c(c3)OCO4)c(-c3ccsc3)oc(=O)c2cc1OC -42.9%
COC(=O)C1(C(=O)OC)C[C@H](c2ccc(OC)cc2)N(Cc2ccccc2OC)[C@@H]1c1ccc(OC)cc1 -33.1%
Cc1ccc(-c2ccc3c(c2)O[C@H](CN(C)C(=O)Nc2ccc(C(F)(F)F)cc2)[C@H](C)CN([C@H](C)CO)S3(=O)=O)cc1 -46%
CC1(C)CC(=O)c2cc(OCC(=O)NCCCN3CCN(c4ccc(F)cc4)CC3)ccc2O1 -30.1%
CC(c1ccccc1F)n1cc(C(=O)NCCc2ccco2)nn1 (stereo not drawn) -30.2%
Cc1ccc2[nH]c(C)c(/C=C/c3cc[n+](C)cc3)c2c1 -33.8%
C=CCn1c(SCC(=O)Nc2cc(C)c(Cl)cc2OC)nnc1-c1ccco1 -37.1%
Cc1cc(C(=O)O)ccc1-n1c(C)cc(C=C2C(=O)c3ccccc3C2=O)c1C -37.5%
O=C(CCn1c(=O)sc2ccccc21)NCc1cccs1 -33.2%
O=C(Cn1c(-c2ccco2)nc2ccccc21)N1CCCCC1 -32.2%
Cc1c(CC(=O)NCC(C)C)c(=O)oc2cc3c(cc12)CCC(C)(C)O3 -43.1%
CCn1c(=N)n(CC(O)COc2cccc(C)c2)c2ccccc21 (stereo not drawn) -46.1%
O=C(CSc1nnc(-c2cccs2)o1)N1CCc2ccccc21 -36.8%
COc1cccc(NC(=O)CN(C)C(=O)/C=C/c2cn(-c3ccccc3)nc2-c2ccc(C)cc2)c1 -35.9%
COCCNC(C(=O)Nc1ccc([N+](=O)[O-])cc1Br)c1ccccc1 (stereo not drawn) -45.3%

Activity change, active:
CN1CCN(/N=C/c2ccc(N(c3ccccc3)c3ccccc3)cc2)CC1 -51.2%
N#CC(C#N)=NNc1ccc([N+](=O)[O-])cc1 -90.6%
Cc1ccc(S(=O)(=O)c2nc(S(=O)(=O)c3ccc(C)cc3)c(N3CCN(CCO)CC3)s2)cc1 -68.1%
CCN(CC)P(=O)(Nc1ccc(C)cc1Br)c1ccc(N(C)C)cc1NC(=O)c1ccco1 (stereo not drawn) -65.6%
COc1cc(/C=C/C(=O)OC(C)C(=O)Nc2ccc(Cl)cn2)ccc1OC(F)F (stereo not drawn) -51.9%
CN(C)CCCN(C(=O)c1ccc([N+](=O)[O-])s1)c1nc2cc3c(cc2s1)OCCO3 -95.7%
Clc1cccc(-c2nc(NCCN3CCOCC3)c3ccccc3n2)c1 -86%
COCc1nnc(NC(=O)CCS(=O)(=O)c2ccccc2)s1 -97.4%
O=C1/C(=C/c2ccncc2)CCc2ccccc21 -102%

Activity change, inactive:
COc1ccc(OC)c(S(=O)(=O)N2CCN(C(=O)NC3CCCCC3)CC2)c1 13.5%
NS(=O)(=O)c1ccc(CCNC(=O)COC(=O)Cc2c(F)cccc2Cl)cc1
O=C(Nc1ccc2c(c1)OCCO2)C(c1ccccc1)n1c(=O)c(-c2ccco2)nc2ccccc21 (stereo not drawn) -4.47%
Cc1nc2ccc(NS(=O)(=O)c3ccc(F)c(F)c3F)cc2s1 47.2%
CC(NC(=O)c1cc(COc2ccccc2)on1)c1nccs1 (stereo not drawn) 12%
COc1ccc2ccccc2c1/C=N/NC(=O)c1sc(N)c(C#N)c1C 0%
CCOc1ccc(OCC)c(NC(=O)CN2CCN(c3cccc(C)c3)CC2)c1 21.9%
Cc1nc2c(C(=O)N3CCN(c4ccccn4)CC3)cnn2c(C)c1Cc1cccc(Cl)c1 13%
C=CCN(CC=C)C(=O)COC(=O)c1ccc(Sc2ncn[nH]2)c([N+](=O)[O-])c1 -3.78%
CCc1ccc(N2CC(C(=O)Nc3cccc(S(=O)(=O)N4CCCC4)c3)CC2=O)cc1 (stereo not drawn) -9.46%
CS(=O)(=O)N(CCc1ccccc1)CC(=O)N1CCCCCC1 0.579%
